Source: publication PMC6919601, “Identification of Plasmodium dipeptidyl aminopeptidase allosteric inhibitors by high throughput screening” (PLoS ONE, 2019)
The campaign covered roughly 110,000 compounds. About 230 (0.21%) showed an effect of 50% or more. The list shows a part of the results.

target: DPAP1 (Plasmodium falciparum, UniProt Q8IIJ9); experiment: primary screen, percent inhibition; read by cleavage of a fluorogenic dipeptide substrate; higher = more effect of the substance; parameters: species or system P. falciparum D10 trophozoite lysates; single well
Sequence (Q8IIJ9 whole entry, looked up): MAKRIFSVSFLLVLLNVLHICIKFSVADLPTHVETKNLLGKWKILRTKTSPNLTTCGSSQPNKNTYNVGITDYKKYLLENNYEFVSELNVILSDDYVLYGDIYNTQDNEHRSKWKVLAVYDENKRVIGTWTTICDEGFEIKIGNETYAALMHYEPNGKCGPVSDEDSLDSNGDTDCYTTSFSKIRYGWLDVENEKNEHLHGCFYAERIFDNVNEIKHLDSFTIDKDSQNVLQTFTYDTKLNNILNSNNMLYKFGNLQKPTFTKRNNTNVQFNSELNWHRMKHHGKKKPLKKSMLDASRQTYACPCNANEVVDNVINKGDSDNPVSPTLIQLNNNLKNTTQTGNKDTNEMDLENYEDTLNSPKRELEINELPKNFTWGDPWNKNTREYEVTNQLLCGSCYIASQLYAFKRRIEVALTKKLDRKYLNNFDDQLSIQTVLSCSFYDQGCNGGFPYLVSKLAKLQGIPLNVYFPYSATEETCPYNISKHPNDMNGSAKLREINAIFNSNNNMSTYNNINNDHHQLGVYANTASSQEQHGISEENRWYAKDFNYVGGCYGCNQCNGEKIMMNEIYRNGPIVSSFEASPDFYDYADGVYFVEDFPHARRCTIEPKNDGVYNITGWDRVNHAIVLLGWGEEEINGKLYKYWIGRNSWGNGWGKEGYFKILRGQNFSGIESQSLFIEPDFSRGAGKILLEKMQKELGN
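Further: 30 min substrate incubation versus DMSO and 10 µM JCP410 controls.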

Row | SMILES | % Inhibition @ 10 uM
1 | COc1cc(C2CC(=O)NC3=C2C(=O)CCC3)cc(OC)c1OC (stereo not drawn) | 8.4%
2 | CN1CCN(C2Cc3ccccc3Sc3cc(F)ccc32)CC1 (stereo not drawn) | 2.84%
3 | Cc1cc2ccccc2c(=O)n1CC(=O)NCc1ccc(F)cc1 | 10.9%
4 | CC1=C(C(=O)Nc2ccccn2)C(c2ccc(Cl)cc2Cl)C2=C(O)CC(C)(C)CC2=N1 (stereo not drawn) | -2.16%
5 | CNc1ncnc2c1N=C1CC(C)(C)CC(NC3CCCCC3)=C1S2 | 8.36%
6 | Cc1ccnc(NC(=O)Nc2sc3nc4n(c(=O)c3c2C)CCC(C)CC4)c1 (stereo not drawn) | -1.7%
7 | NS(=O)(=O)c1ccc(NC(=O)CNS(=O)(=O)c2ccc(F)cc2)cc1 | 0.512%
8 | COc1ccc(C2CC(c3ccc(Br)cc3)=NN2C(C)=O)cc1 (stereo not drawn) | 1.67%
9 | O=S(=O)(c1ccc(Cl)cc1)c1nnn2c1nc(NCC1CCCO1)c1sccc12 (stereo not drawn) | -1.68%
10 | Cc1ccc(NC(=O)COc2ccc(Cl)cc2Cl)cc1O | -3.65%
11 | Cc1ccc(C2CC(C(F)(F)F)n3nc(C(=O)N(C)Cc4c(C)nn(C)c4C)cc3N2)cc1 (stereo not drawn) | 2.32%
12 | COc1cc2c(cc1OC)CC(=O)N(C)CC2 | 4.98%
13 | CCOC(=O)c1c(N)sc2c(OC)c(Br)ccc12 | -8.11%
14 | CCc1ccccc1NC(=O)CN(c1ccccc1)S(=O)(=O)c1ccccc1 | -9.26%
15 | COc1cccc(C2C(C#N)=C(N)Oc3[nH]nc(-c4cc(C)sc4C)c32)c1O (stereo not drawn) | -0.968%
16 | Cc1ccccc1S(=O)(=O)Cc1ccc(C(=O)N2CC(C)CC(C)C2)o1 (stereo not drawn) | -1.28%
17 | Nn1c(S)nnc1-n1cccn1 | -0.169%
18 | c1ccc2c(c1)c1ccccc1n2CCCN1CCCCC1 | -6.12%
19 | Cc1nnc(N2CCC(C(=O)N3CCN(C)CC3)CC2)c2nn(-c3ccccc3)c(C)c12 | -1.41%
20 | CC(C)(C)c1ccc(C(=O)N/C(=C/c2ccc(Br)cc2)C(=O)NCC(=O)O)cc1 | 4.3%
21 | COc1cc(OC)c(OC)cc1CN1CCN(Cc2ccccc2F)CC1 | -1.55%

Row | SMILES | % Inhibition @ 10 uM
22 | COc1ccc(N(C(C)C(=O)N2CCCCC2)S(C)(=O)=O)cc1 (stereo not drawn) | 1.15%
23 | Cc1ccc(N2CC(C(=O)NCCc3ccc(Cl)cc3)CC2=O)cc1C (stereo not drawn) | -4.82%
24 | Cc1ccsc1-c1nc(CSCC(=O)N2CCN(Cc3ccccc3)CC2)c(C)o1 | -1.05%
25 | O=C(O)CCCCCNC(=O)c1ccc(Cl)cc1 | 6.24%
26 | Cc1ccc(S(=O)(=O)N(CC(=O)N2CCCCCC2)c2ccc(F)cc2)cc1 | -2.44%
27 | CCOC(=O)c1c(C)nc(-c2ccccc2)nc1NC(=O)c1ccccc1 | -1.41%
28 | CC1CCN(C(=O)Cn2ncc3c4ccccc4n(Cc4ccccc4F)c3c2=O)CC1 | 1.59%
29 | O=C(CSc1cccc2c(SCC(=O)c3ccccc3)cccc12)c1ccccc1 | 4.82%
30 | O=C(NC1CCCC1)C(c1ccccc1)N1CCCC1 (stereo not drawn) | -3.78%
31 | Cc1cccc(-c2nc3s/c(=C\C4=Cc5ccccc5OC4)c(=O)n3n2)c1 | 2.24%
32 | CCOC(=O)c1cnc2c(C)c(Cl)ccc2c1NCCCN1CCOCC1 | -5.15%
33 | CCn1c(=O)c2sccc2n2c(CCCC(=O)NC3CCCCCC3)nnc12 | -1.04%
34 | COc1ccc2c(c1)C1=NN(C(C)=O)C(c3ccc(F)cc3)C1CC2 (stereo not drawn) | -4.26%
35 | COc1ccc(Cl)cc1NC(=O)CC1S/C(=N\c2ccc(F)cc2)N(C)C1=O (stereo not drawn) | -0.854%
36 | Brc1ccc2ncnc(NCCCN3CCOCC3)c2c1 | -3.06%
37 | CC1CCN(C(=O)CSc2nnc(-c3ccc(F)cc3)o2)CC1 | -2.8%
38 | CCN(CC)C(=O)Cn1ncc2c(C)n(Cc3ccccc3F)c(C)c2c1=O | -0.447%
39 | CCCNc1nc(O)nnc1C | -1.4%
40 | O=C(Nc1cccc(C(=O)Nc2cccc(Cl)c2)c1)c1ccccc1 | 0.245%
41 | C=CCN1CCc2cccc3c2[C@H]1Cc1ccc(O)c(O)c1-3 | 5.12%
42 | CCN(CC)C(=O)CSc1nc2ccc(C)cc2cc1C#N | 2.36%

Row | SMILES | % Inhibition @ 10 uM
43 | Cc1ccccc1C(=O)N1CCc2c([nH]c3ccccc23)C1 | -4.52%
44 | CCOc1ccccc1/C=C1\N=C(c2ccc(Br)cc2)OC1=O | 7.59%
45 | CCCN(Cc1ccc(C(=O)OC)cc1)CC1CC1 | -5.31%
46 | CC1CC(CC#N)(Cc2ccccc2)C(C)CN1C (stereo not drawn) | -2.63%
47 | CCCNC(=O)C1Sc2nnc(-c3ccccc3)n2NC1c1ccc(F)cc1 (stereo not drawn) | 1.72%
48 | Cc1ccc(C)c(CN2CCCN(Cc3cccc(C(F)(F)F)c3)S2(=O)=O)c1 | -3.61%
49 | Cc1ccc(CCNS(=O)(=O)c2ccc3nc(O)ccc3c2)cc1 | -6.37%
50 | O=C(NCCNC1=NS(=O)(=O)c2ccccc21)c1ccc(S(=O)(=O)N2CCCCC2)cc1 | -7.7%
51 | O=C(NCC12CC3CC(CC(C3)C1)C2)c1nn2cccnc2c1Cl | 15.8%
52 | O=C1NC(=O)C(=Cc2ccc(Sc3cccc4ccccc34)o2)C(=O)N1 | 2.14%
53 | O=C(NCc1ccccc1)c1cc2n(n1)C(C(F)(F)F)CC(c1ccc(Cl)cc1)N2 (stereo not drawn) | 2.63%
54 | O=C(Cn1nnc2sc3c(c2c1=O)CCCC3)c1ccc(Cl)cc1 | 2.41%
55 | Cc1onc(-c2ccccc2)c1C(=O)NCCN1CCOCC1 | 4.84%
56 | O=C(O)c1ccccc1C(=O)N1CCN(c2ccc([N+](=O)[O-])cc2)CC1 | 3.61%
57 | CCOC(=O)C1CCCCN1Cc1ccccc1F (stereo not drawn) | 1.55%
58 | COc1ccc(C(C)C)cc1S(=O)(=O)N1CCOCC1 | 2.79%
59 | CCCCNC(=O)CCc1nnc2n(Cc3ccc(Cl)cc3)c(=O)c3ccccc3n12 | -2.42%
60 | O=C(Nc1ccc(S(=O)(=O)NC2CCCCC2)cc1)c1ccc([N+](=O)[O-])cc1 | 2.33%
61 | Cc1cccnc1NC(=O)C1CC=CCC1C(=O)O (stereo not drawn) | 4.35%
62 | CC(NC(=O)C1c2ccccc2Oc2ccccc21)c1ccccc1 (stereo not drawn) | -3.25%
63 | C=CC/N=C(\CCCC/C(=N\CC=C)C1=C(O)CC(C)(C)CC1=O)C1=C(O)CC(C)(C)CC1=O | 0.275%
